# Out of some 420,000 compounds screened, about 50,000 (12%) were called active. The shares of active, inactive and inconclusive entries below differ from those in the screen. Calls follow the shape of the dose curve; as a rule, active = well fitted inhibition curve with a large enough effect; inconclusive = small, poorly fitted or top-dose-only effect; inactive = flat fitted curve, though single readings scatter. No potency is given beside an inconclusive call; the fits are too rough.
# Experiment: qHTS for Inhibitors of human tyrosyl-DNA phosphodiesterase 1 (TDP1): qHTS in cells in presence of CPT; also: nearly all actives have a fitted effect of over 55% in size
# Settings: chicken DT40 Tdp1-/-;hTDP1 cells + 20 nM CPT, ATP luminescence, 48 h; activity change, negative = growth inhibition: at 46.2 µM (top of the series) unless noted
# Summary of the method: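 Chicken DT40 Tdp1-/- cells stably complemented with human TDP1 were seeded at 400 cells/well in medium containing 20 nM camptothecin, exposed to pin-transferred compounds, and grown at 37 °C for at least 48 hr. Viability was read as ATP luminescence.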
# % is scaled to controls: 0 for no effect and ±100 for the full control effect; potency is read from the fitted curve at half-maximal effect; tags tell the direction and shape of the fitted curve.
SMILES,Potency,"activity change, negative = growth inhibition"
CCCn1c(SCc2ccc(Cl)cc2)nc2c1c(=O)[nH]c(=O)n2C,"inconclusive [inhibitor, single point]",
CCN(CC(=O)Nc1ccccc1OC)CC(=O)Nc1ccccc1-c1ccccc1,active: 7.31 µM,
COC(=O)C1=C(C)NC(=O)NC1c1ccc([N+](=O)[O-])o1 (stereo not drawn),"inconclusive [inhibitor, partial curve, poor fit]",
CCCCOCCCn1c(-c2ccco2)nc2nc3ccccc3nc21,"inconclusive [inhibitor, single point]",
COc1cc(C)ccc1S(=O)(=O)NC(=O)C1(C)CCN1C(=O)COc1ccc(Cl)cc1 (stereo not drawn),inactive,
CCOc1ccc(C2c3[nH]c4ccccc4c3CCN2C(=O)CCc2ccccc2)cc1 (stereo not drawn),"inconclusive [inhibitor, single point]",
CCOc1ccc(OCC)c(NC(=O)CCSCCc2ccccn2)c1,"inconclusive [inhibitor, partial curve, poor fit]",
CCOC(=O)C1CCN(Cc2cc(Cl)c3ccccc3c2O)CC1,active: 18.4 µM,
CCOC(=O)c1ccc(NC(=O)CCn2c(=O)c3cccn3c3ccccc32)cc1,"inconclusive [inhibitor, single point]",
CC(C)OC(=O)c1cc(-c2ccc(C=O)o2)ccc1Cl,"inconclusive [inhibitor, single point]",
CCOc1ccc(CCNC(=O)c2sc3nc4n(c(=O)c3c2C)CCCC4)cc1OCC,"inconclusive [inhibitor, single point]",
CC1=CCC2C(=O)N(c3ccc(C(=O)N4CCCCCC4)cc3)C(=O)C2C1 (stereo not drawn),"inconclusive [inhibitor, single point]",
O=C(C1CCN(S(=O)(=O)c2ccc(Br)s2)CC1)N1CCN(c2cccc(Cl)c2)CC1,"inconclusive [inhibitor, single point]",
Cc1nn(C)c(C)c1S(=O)(=O)N1CCCC(C(=O)NCCc2ccc(Cl)cc2)C1 (stereo not drawn),"inconclusive [inhibitor, partial curve]",
COc1ccc(NC(=O)c2cccc(S(=O)(=O)N3CCCCCC3)c2)cc1,"inconclusive [inhibitor, single point]",
CCc1noc(C)c1C(=O)Nc1nc(-c2ccc(OC)cc2OC)cs1,"inconclusive [inhibitor, single point]",
O=S1(=O)CCOC[C@H](c2ccccc2)N1Cc1cccc(Cl)c1,,inconclusive: -30.5% [inhibitor]
C[C@H]1[C@H](C)CC[C@]2(C)CC[C@]3(C)C(=CC(=O)C4[C@@]5(C)CC[C@H](O)C(C)(C)C5CC[C@]43C)[C@H]12 (stereo partly drawn),"inconclusive [inhibitor, single point]",
CCOC(=O)c1c(NC(=O)c2ccc(S(=O)(=O)N3CCC(C)CC3)cc2)sc2c1CCN(C)C2,active: 3.66 µM,
COC(=O)c1sccc1NC(=O)c1cc(OC)c(OC)c(OC)c1,inactive,
COc1ccc(-n2c(SCC(=O)Nc3ccc(Cl)c(C)c3)nc3n[nH]c(C)c3c2=N)cc1,active: 13 µM,
O=C(c1cc2ccccc2oc1=O)N1CCN(C(=O)C2CCCO2)CC1 (stereo not drawn),"inconclusive [inhibitor, single point]",
CCC1(C)Cc2ccccc2-c2nc3n(c(=O)c21)CCS3 (stereo not drawn),"inconclusive [inhibitor, single point]",

SMILES,Potency,"activity change, negative = growth inhibition"
Cc1ccc(C)c(Sc2ccc(NC(=O)CCN3C(=O)NC4(CCCC4)C3=O)cc2)c1,"inconclusive [inhibitor, single point]",
O=C(O)c1cc(-c2cccc(Cl)c2)nc2nc(N3CCCCC3)sc12,"inconclusive [inhibitor, single point]",
Cc1c(N=C(N)/N=C(\N)Nc2ccc(Br)cc2)c(=O)n(-c2ccccc2)n1C,"inconclusive [inhibitor, single point]",
Cc1ccc2[nH]c(CSc3nnc(NC(=O)COc4ccccc4)s3)cc(=O)c2c1,inactive,
CCNc1c(NS(=O)(=O)c2ccc(F)c(Cl)c2)c(=O)oc2ccccc12,inactive,
CCn1c(=O)cc(OCC(=O)NCCC(C)C)c2ccccc21,active: 29.1 µM,
O=C(Nc1nc2ccc(S(=O)(=O)N3CCCC3)cc2s1)c1cccc(F)c1,"inconclusive [inhibitor, single point]",
CCCCN(CCCC)S(=O)(=O)c1ccc(NC(=O)c2cccs2)cc1,active: 25.9 µM,
COc1cccc(CN=CC2=C(O)CC(C)(C)CC2=O)c1OC,inactive,
O=C(CSc1ncn[nH]1)N/N=C/c1ccc(F)cc1,inactive,
CCOC(=O)c1sc2ncn(CC(=O)Nc3ccc(N(C)C)cc3)c(=O)c2c1C,inactive,
Cc1ccc(C2NC(c3ccc(C)cc3)C(C)C(=NO)C2C)cc1 (stereo not drawn),"inconclusive [inhibitor, partial curve]",
CN(C)C(=O)c1nc2ccc(Cl)cn2c1CNCc1ccccc1OC(F)(F)F,"inconclusive [inhibitor, single point]",
CC1(C)Cc2ccccc2-c2nnc(SCC(=O)Nc3ccc4c(c3)OCO4)n21,active: 16.4 µM,
OC(CN1CCCC1)c1ccccc1 (stereo not drawn),"inconclusive [inhibitor, single point]",
CCN1CC(CN(C)Cc2cn(-c3ccc(C)cc3)nc2-c2cccc(C)c2)CC1=O (stereo not drawn),"inconclusive [inhibitor, single point]",
CCS(=O)(=O)N1CCc2cc(C(=O)Nc3ccc(OC)c(Cl)c3)ccc21,"inconclusive [inhibitor, single point]",
CCC(=O)Oc1oc(-c2ccccc2)nc1C=Nc1ccccc1OC,"inconclusive [inhibitor, single point]",
CCCCn1cc(S(=O)(=O)c2ccc(C)c(C)c2)c(=O)c2cc(F)c(N3CCCC(C)C3)cc21 (stereo not drawn),"inconclusive [inhibitor, single point]",
Cc1cc2oc(=O)cc(CN(C)Cc3ccccc3F)c2cc1Cl,"inconclusive [inhibitor, partial curve, poor fit]",
COc1ccc(Br)cc1CNC(=O)C1CCN(S(=O)(=O)N2CCCC2)CC1,inactive,
CC1CCc2sc3ncnc(N4CCN(C)CC4)c3c2C1 (stereo not drawn),"inconclusive [inhibitor, single point]",
COc1ccc(C)cc1NC(=O)CC(NC(C)=O)c1ccccc1 (stereo not drawn),inactive,

SMILES,Potency,"activity change, negative = growth inhibition"
O=C(c1ccco1)N1C(=O)c2cccc3c(S(=O)(=O)N4CCCC4)ccc1c23,"inconclusive [inhibitor, partial curve]",
O=C(CSC1=NS(=O)(=O)c2cc(F)ccc2N1)Nc1ccccc1F,"inconclusive [inhibitor, single point]",
OC(CNCc1ccco1)Cn1c2ccc(Br)cc2c2cc(Br)ccc21 (stereo not drawn),active: 14.6 µM,
CCN(C(=O)c1cc(Cl)ccc1OC)C1CCCCC1,"inconclusive [inhibitor, single point]",
CC(=O)Nc1ccc(OCCC[n+]2ccccc2)cc1,inactive,
COc1ccc(CCNC(=O)CCCn2c(=O)c3ccccc3n(Cc3cccc(Cl)c3)c2=O)cc1OC,"inconclusive [inhibitor, single point]",
Cc1cccc(N2CCN(S(=O)(=O)c3cc4c(cc3Cl)NC(=O)CO4)CC2)c1C,"inconclusive [inhibitor, single point]",
CCOc1ccc(N(C(=O)CC(C)C)S(=O)(=O)c2ccc3c(c2)oc(=O)n3C)cc1,"inconclusive [inhibitor, single point]",
CCNc1ncc2nc(-c3ccc(F)cc3)c(=O)n(-c3ccc(OC)cc3)c2n1,active: 0.731 µM,
O=C(CSc1ccccc1)N1CCCC(N2CCN(c3ccccc3)CC2)C1 (stereo not drawn),"inconclusive [inhibitor, single point]",
COc1ccc(C(=O)NC(C)c2nnc(SCC(=O)Nc3nc4ccccc4s3)n2C)cc1 (stereo not drawn),"inconclusive [inhibitor, partial curve, poor fit]",
CCc1cc2c(COC(=O)c3cc(S(=O)(=O)N4CCOCC4)ccc3F)cc(=O)oc2cc1O,active: 18.4 µM,
Cc1ccc(C)c(S(=O)(=O)N2CCN(Cc3ccc(O)c4ncccc34)CC2)c1,active: 5.8 µM,
CCOc1ccc(S(=O)(=O)N2CCN(Cc3ccccc3)CC2)cc1,inactive,
C=CCSc1nnc(CCCCCN2C(=O)c3cccc4cccc(c34)C2=O)o1,"inconclusive [inhibitor, single point]",
COc1ccc2nc(C)c(C(N)=O)cc2c1,inactive,
CC[C@]12c3[nH]c4ccc(Cl)cc4c3CCN1C(=O)[C@@H](CC(=O)NCC13CC4CC(CC(C4)C1)C3)C[C@@H]2C(=O)N1CCN(C(=O)c2ccco2)CC1,"inconclusive [inhibitor, single point]",
CCC(=O)Nc1c(C(=O)N2CCN(c3ccc(F)cc3)CC2)oc2ccccc12,active: 13 µM,
CCOc1ccc(CC(=O)NCCc2csc(-c3ccc(C)cc3)n2)cc1,"inconclusive [inhibitor, single point]",
COc1ccc(CCNS(=O)(=O)c2ccc3c(c2)CC(C)N3C(=O)C2CCC2)cc1OC (stereo not drawn),"inconclusive [inhibitor, single point]",
Cc1nc2c(C)[n+](CC(=O)c3ccccc3)ccc2n1C,inactive,
COc1ccccc1/C=c1\sc2nc(-c3ccco3)nn2c1=O,"inconclusive [inhibitor, single point]",

# — PubChem BioAssay AID686979 (National Center for Advancing Translational Sciences (NCATS), 2013)
